# Source: PMC6919601, “Identification of Plasmodium dipeptidyl aminopeptidase allosteric inhibitors by high throughput screening” (PLoS ONE, 2019)
# Out of some 110,000 compounds screened, about 230 (0.21%) showed an effect of 50% or more. This is one part of the list.
# Target: DPAP1 (Plasmodium falciparum, UniProt Q8IIJ9)
# Assay: primary screen, percent inhibition; read by cleavage of a fluorogenic dipeptide substrate; higher = more effect of the substance
# Design: species or system P. falciparum D10 trophozoite lysates; single well
# 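Note: 30 min substrate incubation versus DMSO and 10 µM JCP410 controls.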
# Chain of DPAP1 (Q8IIJ9 whole entry, looked up): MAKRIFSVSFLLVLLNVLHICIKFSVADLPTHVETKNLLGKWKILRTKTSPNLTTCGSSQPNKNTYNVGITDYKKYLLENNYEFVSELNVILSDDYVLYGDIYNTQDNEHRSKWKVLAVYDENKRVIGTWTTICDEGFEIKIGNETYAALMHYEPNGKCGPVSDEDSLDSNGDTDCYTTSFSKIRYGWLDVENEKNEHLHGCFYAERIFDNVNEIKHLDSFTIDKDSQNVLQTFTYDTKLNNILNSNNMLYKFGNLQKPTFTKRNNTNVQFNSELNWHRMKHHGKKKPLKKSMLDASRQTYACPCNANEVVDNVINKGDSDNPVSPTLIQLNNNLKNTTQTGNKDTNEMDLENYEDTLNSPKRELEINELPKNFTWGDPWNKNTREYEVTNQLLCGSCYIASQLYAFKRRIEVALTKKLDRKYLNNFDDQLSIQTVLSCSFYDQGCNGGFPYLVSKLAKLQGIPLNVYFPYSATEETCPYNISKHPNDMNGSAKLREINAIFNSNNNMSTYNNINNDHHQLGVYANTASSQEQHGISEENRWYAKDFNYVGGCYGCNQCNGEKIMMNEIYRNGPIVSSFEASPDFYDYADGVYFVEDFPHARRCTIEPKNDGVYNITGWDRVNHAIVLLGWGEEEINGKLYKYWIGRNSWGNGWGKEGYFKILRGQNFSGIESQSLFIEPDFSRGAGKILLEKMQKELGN
row,SMILES,% Inhibition @ 10 uM
1,Cc1cc(=O)n2nc(N3CCC(C(=O)NCCCc4ccccc4)CC3)sc2n1,-7.54%
2,COc1ccc(/C=C2\C(=O)NC(=S)N(c3cccc(Cl)c3)C2=O)cc1,4.52%
3,Cc1c(Cl)cccc1NC(=O)CN(c1ccc2c(c1)OCCO2)S(=O)(=O)c1ccccc1,1.19%
4,O=C(NC(=S)n1cnc2ccccc21)c1ccco1,-1.29%
5,CN(C)S(=O)(=O)N1CC=C(c2ccc(F)cc2)CC1,-5.33%
6,COC(=O)c1ccc(CSc2nnc(CNC(=O)COc3ccc(Cl)cc3)o2)o1,-5.27%
7,COc1ccc(C(CC(=O)NC2CCCCCC2)N2Cc3ccccc3C2=O)cc1 (stereo not shown),-2.01%
8,COc1ccc(CCNC(=O)C(=O)NCC2CCCO2)cc1 (stereo not shown),-7.47%
9,C=CCOc1ccc(C2c3c(oc4ccc(C)cc4c3=O)C(=O)N2c2ccccn2)cc1OC (stereo not shown),-5%
10,COc1ccc(N2C(=O)C3C4C=CC(C4)C3C2=O)c(OC)c1 (stereo not shown),3.05%
11,CCN(Cc1ccccc1)C1CCN(C)CC1,-0.414%
12,Cn1cc(Br)c(C(=O)N2N=C3CCCCC3C2(O)C(F)(F)F)n1 (stereo not shown),1.15%
13,Cc1ccc(-c2cc(C(F)F)n3ncc(C(=O)N4CCc5ccccc5C4)c3n2)cc1,0.778%
14,O=C(c1ccccc1F)N1CCN(C/C=C/c2ccccc2)CC1,-1.98%
15,CC(=O)Nc1ccccc1SCC(=O)Nc1ccc(Cl)cc1Cl,1.17%
16,COc1ccc(CC(=O)Nc2cc(Cl)ccc2C(=O)O)cc1,-3.85%
17,Cc1cc(OCC(=O)Nc2ccc(S(=O)(=O)N3CCOCC3)cc2)cc(C)c1Cl,-11.5%
18,Cc1ccc2c(Cl)c(C(=O)N3CCCC3)sc2c1,5.04%
19,CCOC(=O)N1CCN(C(=O)c2c(C)nn(-c3ccc(C)cc3)c2-n2cccc2)CC1,-3.36%
20,Cc1[nH]c2ccccc2c1C(=O)CSc1nc2ccccc2o1,-5.11%
21,CCc1ccc2nc3nc(C)cc(C)c3c(O)c2c1,-1.52%
22,COc1ccc(C2C=C(c3ccc(F)cc3)Nc3nc4ccccc4n32)c(OC)c1 (stereo not shown),1.73%
23,CCOC(=O)c1oc2c(CN3CCCCC3C)c(O)ccc2c(=O)c1-c1ccccc1OC (stereo not shown),2.31%
24,Brc1ccc2[nH]c3c(c2c1)CCCC3NCc1ccccc1 (stereo not shown),5.77%
25,O=C1NCCN/C1=C\C(=O)c1ccc(Br)cc1,-2.55%

row,SMILES,% Inhibition @ 10 uM
1,Cc1cc(OC(C)C(=O)Nc2cccnc2Cl)ccc1Cl (stereo not shown),0.161%
2,COc1ccc(C(=O)Nc2nc(-c3ccccc3)c(C)s2)c(OC)c1,5.12%
3,CC1(C)CC(=O)C2=C(C1)OC1=C(C(=O)CC(C)(C)C1)C2(C)C,5.64%
4,Cc1cc(C)nc(N/C(=N\C(=O)C(C)N2C(=O)c3ccccc3C2=O)NCc2ccc(Cl)cc2)n1 (stereo not shown),-1.1%
5,Cn1c(=O)c(C#N)cc2c(=O)n3ccccc3nc21,-0.764%
6,Cc1nnc(SCc2ccc(Cl)cc2Cl)nc1O,-3.4%
7,COc1ccc(-n2ncc3c(N(C)Cc4ccccc4)ncnc32)cc1,2.54%
8,Nc1n[nH]c(-c2ccc([N+](=O)[O-])cc2)n1,3.54%
9,COc1ccc(OC)c(NC(=O)CS(=O)(=O)Cc2ccccc2)c1,-3.16%
10,CCC(C)(C(=O)NC1CCCC1)N(Cc1ccco1)C(=O)CNC(=O)c1ccccc1 (stereo not shown),7.29%
11,O=C(NCc1ccc2c(c1)OCO2)c1nc(-c2ccc(Br)o2)no1,-3.75%
12,COc1ccccc1Oc1ccc(C#N)c(C#N)c1,-3.16%
13,CCCCOc1ccc(S(=O)(=O)N(CC)CC)cc1,2.78%
14,CCC(Oc1ccc2c(c1)C(=O)CC(C)(C)O2)C(=O)NCc1ccco1 (stereo not shown),5.23%
15,O=C1CCCc2c1[nH]c1ccc([N+](=O)[O-])cc21,2.38%
16,COc1ccc(CN2CCN(c3cccc(C(F)(F)F)c3)CC2)c(C)c1C,-3.65%
17,Cc1ccc(NC(=N)Nc2nc(O)c3c(n2)CCC3)cc1Cl,-8.36%
18,CC(C)CNC(=O)C(=O)NCc1ccccc1,1.29%
19,O=C1OC(c2ccc(Br)o2)=N/C1=C\c1ccc(Cl)cc1Cl,-5.99%
20,COc1ccc2c(c1)C(=O)N(C)C(=O)/C2=C/Nc1ccccc1,8.92%
21,CC1CCN(CC(O)Cn2c3ccccc3c3ccccc32)CC1 (stereo not shown),1.72%
22,O=C(CSc1nc2ccsc2c(=O)n1Cc1ccccn1)c1ccccc1,-6.44%
23,O=C(CSc1nc(O)c2ccccc2n1)Nc1ccc(F)c(F)c1F,-2.74%
24,Cc1nc2cc(S(=O)(=O)N3CCC(C(=O)NCc4cccc(F)c4)CC3)ccc2n1C1CCCC1,-7.28%
25,CCN(CC)C(=O)Cn1cc(SCc2cccc(C)c2)c2ccccc21,1.66%

row,SMILES,% Inhibition @ 10 uM
1,O=C(CN1C(=O)CSc2ncccc21)NCCN1CCCC1,-4.15%
2,Cc1cc(/C=C2\NC(=O)N(Cc3ccc(Cl)cc3)C2=O)c(C)n1-c1ccccc1F,2.17%
3,COc1ccc(NC(c2ccc(Br)cc2)P(=O)(OC)OC)cc1 (stereo not shown),0.00178%
4,Cc1ccccc1OCCn1cc(C(=O)C2CC2)c2ccccc21,1.62%
5,O=C(Nc1cccc(-c2nc3ccc(Cl)cc3o2)c1)c1ccccc1F,6.08%
6,CCCN(CCC)C(=O)Cn1ncc2c3ccccc3n(Cc3ccccc3C)c2c1=O,4.95%
7,Cc1nc2ccccc2c2oc(C(=O)NCc3ccc(F)cc3)cc12,1.62%
8,N#CC1(NC(=O)[C@H](Cc2c(F)cccc2F)NC(=O)c2ccc(-c3cc(C(=O)O)ccc3Cl)cc2)CCOCC1,14.7%
9,O=C(c1cc(-c2ccccc2O)on1)N1CCCCCC1,2.4%
10,COc1cc(/C=C2\SC(=O)N(CC(=O)Nc3ccc(C)cc3)C2=O)ccc1OC(C)C,1.19%
11,CCc1nn(C(C)C(=O)N2CCN(Cc3ccccc3)CC2)c(=O)c2cc3occc3n12 (stereo not shown),-0.281%
12,Cc1cc(C)nc(NC(=O)NS(=O)(=O)N(Cc2ccccc2)Cc2ccccc2)n1,5.53%
13,O=C(c1ccc(Oc2ccccc2)cc1)c1nc2c(n1O)CCCC2,1.74%
14,COc1ccc(S(=O)(=O)Nc2ccc(S(=O)(=O)Nc3ccc(F)cc3)cc2)cc1C,-2.09%
15,Cc1cc(NS(=O)(=O)c2ccc(NC(=O)COc3ccc4ccccc4c3)cc2)no1,0.658%
16,CC(C)c1ccc2oc(-c3cccc(N)c3)nc2c1,-8.67%
17,CCOC(=O)c1sc(NC(=O)COc2ccc3c(C)cc(=O)oc3c2)c(C(=O)OCC)c1C,0.736%
18,O=C(C1CC(=O)N(C2CCCC2)C1)N1CCC2(CC1)OCCO2 (stereo not shown),-1.21%
19,O=C(Nc1ccccc1Br)C1CC(=O)N(c2ccc3c4c(cccc24)CC3)C1 (stereo not shown),-2.98%
20,Cc1ccccc1NC(=O)CN(c1cc(Cl)ccc1C)S(C)(=O)=O,-6.77%
21,O=C1C=CC(=NS(=O)(=O)c2ccc(C(=O)O)cc2)C=C1,3.35%
22,CCc1ccc(S(=O)(=O)Nc2cc(Cl)ccc2Cl)cc1,22.5%
23,O=C(NCc1ccccc1)c1cncc(Br)c1,0.843%
24,CC(=O)c1cc(-c2ccc(F)cc2)n(CCC(=O)Nc2cccnc2)c1C,1.47%
25,CCN(CC)S(=O)(=O)c1ccc(NC(=O)c2ccc(Cl)cc2Cl)cc1,-2.3%

row,SMILES,% Inhibition @ 10 uM
1,Cc1cccc(N2C(=O)C3C4CCC(C4)C3C2=O)c1 (stereo not shown),1.15%
2,CN(C(=O)c1c(Br)cnn1C)C12CC3CC(CC(C3)C1)C2,1.03%
3,O=C(CCc1ccc(-n2cnc3cccnc32)cc1)NCCc1cccs1,3.96%
4,Cc1ccccc1-c1nc(CSCC(=O)N2CCCC2)c(C)o1,-4.53%
5,O=C(O)c1ccccc1-c1nc2cc(C3=NCCCN3)ccc2[nH]1,-1.17%
6,O=C(O)C=C1C2CC3CC(C2)CC1C3,1.38%
7,CCc1ccc(-c2cn3c(n2)sc2cc(C(=O)N4CCOCC4)ccc23)cc1,15.7%
8,CCn1cc(CNC(=O)c2cc(-c3ccccc3OC)nc3ccccc23)cn1,-10.2%
9,Cc1cccc(NC(=O)NCc2noc3ccccc23)n1,-1.68%
10,COC(=O)c1sc(N2C(=O)c3oc4ccccc4c(=O)c3C2c2cccc(Cl)c2)nc1C (stereo not shown),-2.92%
11,COc1ccc(N/C=C(/C#N)c2nc(-c3ccc(OC)cc3)cs2)cc1,-4.3%
12,COc1ccccc1C(=O)Nc1sc2c(c1C(N)=O)CCC(C)C2 (stereo not shown),12.2%
13,CCCCSc1nc(O)cc(=O)n1C,-3.04%
14,O=C(c1cc2ccccc2oc1=O)N1CCCc2ccccc21,-4.18%
15,COc1cc(NC(=O)CC(C)=O)c(OC)cc1Cl,-1.97%
16,CC(=O)Nc1ccc(S(=O)(=O)Nc2cccc3ccccc23)cc1,-0.884%
17,O=C(CNS(=O)(=O)c1ccc(Br)cc1)N1CCCCC1,4.5%
18,O=C(NC1(C(F)(F)F)C(=O)Nc2c1c(=O)[nH]c(=O)n2-c1ccccc1)c1ccc(F)cc1 (stereo not shown),-6.92%
19,COc1ccc2c(c1)/C(=N/OC(=O)c1cccs1)CCC2,-1.68%
20,CCCCC(=O)NCCc1nc2ccccc2[nH]1,0.777%
21,CC(C(=O)NC1CCc2ccccc21)n1nc2ccccc2n1 (stereo not shown),5.43%
22,CCOc1ccc2[nH]c(SCC(=O)N3CCN(S(=O)(=O)c4ccccc4)C3C(C)C)nc2c1 (stereo not shown),-3.34%
23,N#Cc1nc(/C=C/c2cccs2)oc1NCc1cccnc1,3.27%
24,CC(C)(C)c1ccccc1OCCOCCN1CCNCC1,-0.473%
25,CCN(CC)C(=O)CN(c1cc2c(cc1OC)oc1ccccc12)S(=O)(=O)c1ccc(C)cc1,-5.23%
